Results as given in PubChem BioAssay (NCI).
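48-hour exposure; five concentrations; linearly interpolated endpoints. GI50: concentration for 50% inhibition of growth. Definition used: TGI = concentration required for complete inhibition of growth.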

Tested on: NCI-H322M lung
Assay: DTP human tumour cell line panel, 48 h

Row | SMILES | TGI [µM] | GI50 [µM]
1 | CCOC(=O)C1Nc2ccc([N+](=O)[O-])cc2[C@H]2OCC[C@@H]12 (stereo partly specified) | > 100 | 
2 | COc1cccc([C@@H]2C/C(=N\NC(=O)C(=O)N[C@@H](C)c3ccccc3)c3cc4c(cc3N2)OCO4)c1 | > 100 | 
3 | [O-]c1ccccc1[C-]=Nc1ccccc1O.[O-]c1ccccc1[C-]=Nc1ccccc1O.[O]=[U]=[O] | 51.8 | 9.28
4 | O=C(N/C(=C\NC1=NCCS1)C(=O)N1CSC[C@@H]1C(=O)O)c1ccccc1 | > 100 | 
5 | C[C@@]1([C@H](OC(=O)c2cccc3ccccc23)C(N)=O)CO1 | 17.1 | 5.81
6 | CC1(C)CCc2cc3c(cc2O1)OC(C)(C)CC3=O | > 100 | 
7 | COc1cc2c(cc1OCCCOc1cc3c(cc1OC)C(=O)N1CC(F)(F)C[C@H]1C=N3)N=C[C@@H]1CC(F)(F)CN1C2=O | > 26.3 | 5.35
8 | C[C@]12CC/C(=N\O)C[C@@H]1CC[C@@H]1[C@@H]2CC[C@]2(C)/C(=N/O)CC[C@@H]12 | 66.2 | 24
9 | CCOc1cccc2sc(N)nc12 | > 100 | 
10 | CCOC(=O)CC[C@H](NC(=O)c1ccc(CNc2nc3cc(C(F)(F)F)ccc3nc2C(=O)OCC)cc1)C(=O)OCC | > 100 | 
11 | COc1ccc2c(c1)CC[C@@H]1C2CC[C@]2(C)C(=N\O)/C(=N/O)CC12 (stereo partly specified) | 37.2 | 
12 | CC/C=C\C[C@H](O)C/C=C1/C(=O)C=C[C@@H]1C/C=C\CCCC(=O)OCCS(=O)(=O)c1ccccc1 | 15 | 3.51
13 | Cc1cc(C)nc(NS(=O)(=O)c2ccc(Nc3nc4nc(NCc5ccccc5)nc(-c5ccc(O)cc5)c4c(=O)[nH]3)cc2)n1 | > 100 | 48.5
14 | CCCCCCCCCCCCCCCCCCNc1ccn(C2OC(COP(=O)(O)OCC(COP(=O)(O)OCC3OC(n4cc(C)c(=O)[nH]c4=O)CC3N=[N+]=[N-])OCCCCCCCCCCCCCCCCCC)C(O)C2O)c(=O)n1 (stereo unspecified) | > 100 | 
15 | O=C1c2ccccc2-c2nc(-c3cccs3)cc3c2c1nc1ccccc13 | 75.6 | 
